# Results from PubChem BioAssay AID686979 (National Center for Advancing Translational Sciences (NCATS), 2013).
# Where “and” joins values, the source holds several entries; their conditions need not be identical. Equal entries are not always repeated. Among all 420,000 compounds or so, about 50,000 (12%) were called active. The inconclusive results got no clear call from the source; some entries with a clear call stand among them for comparison. Calls come from the whole dose curve; as a rule, active = well fitted inhibition curve with a large enough effect; inconclusive = small, poorly fitted or top-dose-only effect; inactive = flat fitted curve, though single readings scatter. Potencies of inconclusive entries are doubtful fits and often do not repeat.
# Assay: qHTS for Inhibitors of human tyrosyl-DNA phosphodiesterase 1 (TDP1): qHTS in cells in presence of CPT; note: nearly all actives have a fitted effect of over 55% in size
# Conditions: chicken DT40 Tdp1-/-;hTDP1 cells + 20 nM CPT, ATP luminescence, 48 h; activity change, negative = growth inhibition: at 46.2 µM (top of the series)
# Procedure, shortened: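 Chicken DT40 Tdp1-/- cells complemented with human TDP1, 400 cells/well, exposed to compounds plus 20 nM camptothecin for at least 48 h at 37 C; viability read as ATP content by CellTiter-Glo luminescence.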
# % is set by controls: 0 for no effect and ±100 for the full control effect; potency is the fitted concentration of half-maximal effect; tags give direction and shape of the fitted curve.
SMILES,Potency,"activity change, negative = growth inhibition"
COc1ccc(NC2CCCN(C(=O)C3(C)CCCCC3)C2)cc1OC (stereo unspecified),"inconclusive: 20.6 µM [inhibitor, partial curve]",
NC(N)=NCC(O)CN(c1ccccc1)c1ccccc1 (stereo unspecified),"inconclusive: 29.1 µM [inhibitor, single point]",
CCOC(=O)c1[nH]c2ccc(OC)cc2c1NC(=O)c1ccc2c(c1)OCO2,"inconclusive: 29.1 µM [inhibitor, single point]",
CCC12CN3CC(CC)(CN(C1)C3c1ccc(OCc3ccccc3)cc1)C2=O (stereo unspecified),"inconclusive: 6.51 µM [inhibitor, full curve]",
CSCC[C@@H](C(=O)NCCCCCCCCCCC(=O)N1CCN(C(=O)OC(C)(C)C)CC1)n1cc(CCO)nn1,active: 20.6 µM,
CC1CN(CC(O)COc2ccc(C(C)C)cc2)CC(C)O1 (stereo unspecified),"inconclusive: 18.4 µM [inhibitor, single point]",
O=C(CCn1c(=O)c2ccccc2n(Cc2cccc([N+](=O)[O-])c2)c1=O)N1CCc2ccccc2C1,"inconclusive: 29.1 µM [inhibitor, single point]",
S=C(NCCc1ccccc1)N1CCN(Cc2ccccc2)CC1,active: 29.1 µM,
CC(=O)Nc1ccc(S(=O)(=O)N2CCN(Cc3csc(C)n3)CC2)cc1,inactive,
COc1ccccc1OCC(=O)NNC(=O)c1ccoc1C,active: 14.6 µM,
Cc1ccc2c(CC(=O)Nc3cc(C(F)(F)F)ccc3Cl)coc2c1C,inactive,
COc1cc(NC(=O)CCCc2c[nH]c3ccccc23)cc(OC)c1,"inconclusive: 29.1 µM [inhibitor, single point]",
CSc1nc2c(c(=O)[nH]1)C(c1ccc(Br)cc1)CC(=O)N2 (stereo unspecified),"inconclusive: 25.9 µM [inhibitor, single point]",
CCN(c1ccccc1)c1nc(N)nc(C#N)n1,"inconclusive: 35.5 µM [inhibitor, single point]",
O=C(NCc1ccccc1)c1cccc(NC(=O)c2ccccc2)c1,"inconclusive: 0.92 µM [inhibitor, full curve]",
Cc1ccc(C(=O)CSc2nnc(CNc3ccc(F)cc3)o2)cc1,inactive,
CN(C)S(=O)(=O)c1cccc(NC(=O)CCc2c[nH]c3ccccc23)c1,"inconclusive: 29.1 µM [inhibitor, partial curve, poor fit]",
Cc1nn(-c2ccccc2)c(C)c1CN(C)C(=O)c1ccc(S(=O)(=O)NCc2ccco2)cc1,"inconclusive: 29.1 µM [inhibitor, single point]",
COc1ccc(C(=O)COC(=O)C(CCSC)NC(=O)COc2ccccc2)cc1 (stereo unspecified),inactive,
COc1ccccc1CNc1ncnc2ccc(-c3cccc(C#N)c3)cc12,"inconclusive: 20.6 µM [inhibitor, single point]",
Oc1ccccc1N1CCN(Cc2ncc(-c3ccccc3)o2)CC1,inactive,
S=C(NCCN(C1CCCCC1)C1CCCC1)Nc1cccc(Cl)c1,"inconclusive: 23.1 µM [inhibitor, single point]",
O=C(c1ccccc1)c1ccccn1,inactive,
Cc1ccc2oc(=O)n(CCNC(=O)Nc3ccccc3Cl)c2c1,active: 18.4 µM,

SMILES,Potency,"activity change, negative = growth inhibition"
O=S(=O)(O)NC1CCCCC1,inactive,
COc1ccc(-c2nnc(-c3ccccc3O)o2)cc1,"inconclusive: 16.4 µM [inhibitor, single point]",
O=C(O)CC(NC(=O)Cc1ccc([N+](=O)[O-])cc1)c1ccc2c(c1)OCO2 (stereo unspecified),inactive,
COc1ccc(OC)c(S(=O)(=O)Oc2ccc(N)c3ccccc23)c1,"inconclusive: 23.1 µM [inhibitor, single point]",
CCC(C)NC(=O)C1CCC(CNS(=O)(=O)c2cccc3nsnc23)CC1 (stereo unspecified),inactive,
CC(C)OCCCN1C(=O)c2[nH]nc(-c3ccccc3O)c2C1c1cccc(Cl)c1 (stereo unspecified),active: 18.4 µM,
COc1ccc(-c2cnc(N)nc2-c2ccc(OC)cc2O)cc1,"inconclusive: 20.6 µM [inhibitor, single point]",
Cc1ccc(S(=O)(=O)c2nc(-c3ccccc3)oc2N2CCC(C(N)=O)CC2)cc1,inactive,
Cc1cc(C)cc(N2C(N)=NC(N)=NC2c2ccccc2F)c1 (stereo unspecified),"inconclusive: 10.3 µM [inhibitor, partial curve, poor fit]",
Brc1csc(/C=N/Nc2nc3ccccc3s2)c1,"inconclusive: 18.4 µM [inhibitor, single point]",
COC(=O)[C@H](CC(C)C)NS(=O)(=O)N[C@@H](CC(C)C)C(=O)OC,"inactive and inconclusive: 28.2 µM [inhibitor, single point]",
CCCCn1c(SCC(=O)Nc2nnc(CC)s2)nc2c1c(=O)n(C)c(=O)n2C,active: 23.1 µM,
Oc1ccc(N2CCN(c3ccnc4cc(Cl)ccc34)CC2)cc1,"inconclusive: 20.6 µM [inhibitor, single point]",
CN(C)CCCNc1ncnc2oc(-c3ccccc3)c(-c3ccccc3)c12,"inconclusive: 23.1 µM [inhibitor, single point]",
COc1cccc(CNC(=O)C(=O)NCC2OCCCN2S(=O)(=O)c2cc(C)ccc2C)c1 (stereo unspecified),"inconclusive: 20.6 µM [inhibitor, single point]",
Cc1ccccc1NC(=O)Cc1nnc(SCC(=O)NC2=NCCS2)n1C,inactive,
COCCc1ccc(OC2(C)CCN(Cc3ccc(OC)c4ccccc34)C2)cc1 (stereo unspecified),"inconclusive: 25.9 µM [inhibitor, single point]",
CCOC(=O)CCCCCC(=O)Nc1ccc2c(c1)CC(=O)N([C@@H](C)CO)C[C@@H](C)[C@@H](CN(C)C(=O)Nc1ccc(C(F)(F)F)cc1)O2,"inconclusive: 29.1 µM [inhibitor, single point]",
CCCNC(=O)C1(C)CCN(Cc2cc3ccccc3o2)C1 (stereo unspecified),,inconclusive: -30.9% [inhibitor]
Cc1cc(=O)oc2c(C)c(OC(C)C(=O)NC3CCN(Cc4ccccc4)CC3)ccc12 (stereo unspecified),"inconclusive: 29.1 µM [inhibitor, single point]",
O=Cc1c(Sc2ccccn2)nc2ccccn2c1=O,"inconclusive: 29.1 µM [inhibitor, single point]",
COc1ccc(CN2C(=O)CCC2(C)C(=O)NC2CCCCCC2)cc1 (stereo unspecified),inactive,
COc1ccc(Br)cc1CN1CCN(C(=O)c2cccc(OC)c2OC)CC1,"inconclusive: 18.4 µM [inhibitor, single point]",
COCCNC(=O)CCCn1c(SCC(=O)Nc2cccc(C)c2)nc2c(sc3ccccc32)c1=O,"inconclusive: 29.1 µM [inhibitor, single point]",

SMILES,Potency,"activity change, negative = growth inhibition"
COc1ccc(N2CCN(c3nc4c(c(=O)n(C)c(=O)n4C)n3Cc3ccccc3)CC2)cc1,active: 23.1 µM,
CCc1ccc(CNC(=O)c2nn(C)c3c2CS(=O)(=O)c2ccccc2-3)cc1,"inconclusive: 29.1 µM [inhibitor, single point]",
CC(=O)Oc1ccc2c(c1)CCC1C2CC[C@@]2(C)C1CC(OC(C)=O)C2OC(C)=O (stereo partly specified),"inconclusive: 0.82 µM [inhibitor, single point]",
CCc1cn([C@H]2C[C@H](O)[C@@H](CO)O2)c(=O)[nH]c1=O,"inconclusive: 20.6 µM [inhibitor, single point]",
COCCn1c(SCC(=O)N2CCC(C)CC2)nc2ccccc2c1=O,"inconclusive: 4.61 µM [inhibitor, partial curve, poor fit]",
O=c1c2cnn(-c3ccccc3)c2nc(-c2ccco2)n1-c1ccccc1,"inconclusive: 25.9 µM [inhibitor, single point]",
Cc1cc(C(=O)OC(C(=O)Nc2cccc(C(F)(F)F)c2)c2ccccc2)c(C)o1 (stereo unspecified),"inconclusive: 20.6 µM [inhibitor, single point]",
CC(=O)NN1C(=O)/C(=C\c2ccc(Br)o2)SC1=S,"inconclusive: 18.4 µM [inhibitor, single point]",
COc1ccc(CC(=O)NC(c2ccccc2)c2ccc(C)cc2)c(OC)c1 (stereo unspecified),"inconclusive: 29.1 µM [inhibitor, single point]",
COc1cc(C2c3c(oc4ccccc4c3=O)C(=O)N2c2nccs2)ccc1O (stereo unspecified),inactive,
Cn1cnc([N+](=O)[O-])c1S(=O)(=O)c1cccc(Cl)c1,active: 1.84 µM,
Cc1nnc2ccc(Oc3ccc(-c4ccccc4)cc3)nn12,active: 12.6 µM,
Cc1nn(Cc2nnc(SCC(=O)Nc3cccc(C(F)(F)F)c3)n2C)c(C)c1[N+](=O)[O-],"inconclusive: 25.9 µM [inhibitor, partial curve, poor fit]",
C#CCCCc1nc2ccccc2c(=O)n1N,inactive,
O=C(CN1c2cccc3cccc(c23)S1(=O)=O)Nc1ccc(F)c(F)c1F,"inconclusive: 29.1 µM [inhibitor, single point]",
CCn1c(SCC(=O)NNC(=O)c2ccccc2)nnc1-c1ccco1,inactive,
CN(C)c1ccc(/C=C/c2sc3ccccc3[n+]2Cc2ccccc2)cc1,active: 0.112 µM,
O=C(/C=C/CCc1ccc2c(c1)OCO2)N1CCCCC1,inactive,
COc1ccc(CCNC(=O)COC(=O)C2CCCCC2)cc1,inactive,
CC(OC(=O)CNC(=O)C1CCCCC1)C(=O)NCc1ccccc1 (stereo unspecified),inactive,
COc1ccc(Cl)cc1NC(=O)C1CC(c2c(F)cccc2Cl)=NO1 (stereo unspecified),"inconclusive: 29.1 µM [inhibitor, single point]",
O=C(C1CC1)N1CCc2cc(S(=O)(=O)N3CCCc4ccccc43)ccc21,"inconclusive: 29.1 µM [inhibitor, single point]",
CC(NC(=O)Cn1cccc1C(=O)c1ccccc1)c1ccccc1 (stereo unspecified),active: 13 µM,
